The labels stand for the following.
B1: TPR 5TU (parent)
chain: GGAUCUUCUCGAUCUAACAAAAAAGACAAAUCUGCCACAAAGCUUGAGAGCAUCUUCGGAUGCAGAGGCGGCAGCCUUCGGUGGCGCGAUAGCGCCAACGUUCUCAACUAUGACACGCAAAACGCGUGCUCCGUUGAAUGGAGUUUAUCAUG

The values below come from the RNAGym collection of RNA variant scans (doi:10.1073/pnas.2313332121).

This sample is rich in variants without activity. A value given as a limit tells only on which side of the number the result lay.

Variants of B1 are the subject of the data set. As to the kind of experiment: polymerase ribozyme fitness, log enrichment relative to wild type (log ratio); higher = more active; in vitro selection for triplet polymerase activity. The procedure, abridged: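 One round of in vitro selection, in triplicate, was applied to PCR-built, transcribed mutant libraries of each subunit of a heterodimeric triplet polymerase ribozyme. The steps were annealing with a biotinylated primer, partner subunit and triplets, incubation frozen at −7 °C, gel excision of extended constructs, streptavidin-bead capture and RT-PCR. Fitness is the logarithm, base 2, of genotype enrichment over wild-type enrichment from inverse-variance-weighted replicate averages of Illumina-sequenced inputs and outputs, keeping genotypes with ≥10 input reads and ≥1 read per output.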
As to U45A G92C, the “polymerase ribozyme fitness (log ratio)” value was -3.75. On to U45A G92U, for which the “polymerase ribozyme fitness (log ratio)” value is -2.75. Turning to A49C C69G C85A A120C C125U, the “polymerase ribozyme fitness (log ratio)” value is at most -4.2. For G48C A49U G50A G58A A107C U134A, the “polymerase ribozyme fitness (log ratio)” value was at most -4.2.

Take G48C G86A C96U C105G C108G U148A: the “polymerase ribozyme fitness (log ratio)” value is at most -4.2. In the case of G46A U61A C96G U102G C116A A137G, the “polymerase ribozyme fitness (log ratio)” value was at most -4.2.

Consider G46A A49C, for which the “polymerase ribozyme fitness (log ratio)” value was at most -4.2. The result for U45G C54A G67A C95U reads at most -4.2; that for A47C G48C G74C U78G G143U, at most -4.2; that for A49C C54A U55A A73U U77A C85A A107G, at most -4.2. For G48C A73U C76A C87U U90G C96A U146G, the “polymerase ribozyme fitness (log ratio)” value was at most -4.2.

For A47C A60G A113C G126A A142C, the “polymerase ribozyme fitness (log ratio)” value is at most -4.2. As for G48C A91U A113U A115C G141A, the “polymerase ribozyme fitness (log ratio)” value is at most -4.2. Regarding U45C A66C G92U U104G, the “polymerase ribozyme fitness (log ratio)” value is at most -4.2. U45C U53A U90A C103A C129U G143C: the “polymerase ribozyme fitness (log ratio)” value was at most -4.2.

Regarding U45A U78G A110U, the “polymerase ribozyme fitness (log ratio)” value is at most -4.2. As to A47G U56A C87A G133U, the “polymerase ribozyme fitness (log ratio)” value was at most -4.2. For U45G A49C G50C C87U C96A, the “polymerase ribozyme fitness (log ratio)” value is at most -4.2. The result for G46A C85G A106C C125A reads at most -4.2; that for U45G G83A, -0.848; that for A47C G92U C105U C131G, at most -4.2. Turning to G46A C57U U61A, the “polymerase ribozyme fitness (log ratio)” value was at most -4.2. As for G48U U53A C79A C105G C129U, the “polymerase ribozyme fitness (log ratio)” value is at most -4.2. G48C U55A A122U: the “polymerase ribozyme fitness (log ratio)” value came to 0.121. In the case of G48U G59C G81A A97U it was -1.88; in that of G48A A52G G74A A91G C93A G143A, at most -4.2; in that of U45C A91C C96A C114U G133C, at most -4.2. Regarding G48C U55A U56G G88A A119C, the “polymerase ribozyme fitness (log ratio)” value is at most -4.2.

Take U45G G46C G67U: the “polymerase ribozyme fitness (log ratio)” value was at most -4.2. With G48C C96A U111A A138C, the “polymerase ribozyme fitness (log ratio)” value was at most -4.2.

Consider A49C C51U C57G A64C U102G A120U G152U, for which the “polymerase ribozyme fitness (log ratio)” value is at most -4.2. The result for G46A U61G C103A C118G reads at most -4.2; that for A47U C54G A60G G92A U101A U109G C114U G128C C129U A147U U148G, at most -4.2; that for A47U A49C G50A C51A G67C C95U G133U A150G, at most -4.2. Take A47C G48A U53A A73C U104G A120G: the “polymerase ribozyme fitness (log ratio)” value is at most -4.2.

For the variant G46C G68A U101G G117U, the “polymerase ribozyme fitness (log ratio)” value was at most -4.2. Regarding A47C U61G G94C C116A, the “polymerase ribozyme fitness (log ratio)” value is at most -4.2. G46U C85U C99U G100A: the “polymerase ribozyme fitness (log ratio)” value was at most -4.2. As to A47G G74A A115G, the “polymerase ribozyme fitness (log ratio)” value was at most -4.2.

With G46U G83U, the “polymerase ribozyme fitness (log ratio)” value was -2.29.

With G46U U90G C93U, the “polymerase ribozyme fitness (log ratio)” value is at most -4.2. The result for G46U A47G A66C C76A A91U C116G reads at most -4.2; that for G48A G86U C95U C123A, -2.89; that for G46C C54U A66G G94A C95A G143A, at most -4.2.

As to G46U C93U, the “polymerase ribozyme fitness (log ratio)” value was -0.878.

G46A C51U C76G U148G: the “polymerase ribozyme fitness (log ratio)” value is at most -4.2. Regarding A47U C69G A89U C93U C116U G124C, the “polymerase ribozyme fitness (log ratio)” value was at most -4.2. As for G46A U55A, the “polymerase ribozyme fitness (log ratio)” value was -0.993.

As to G46C C85U A110U, the “polymerase ribozyme fitness (log ratio)” value was -4.17. Consider G48U G83A G92A, for which the “polymerase ribozyme fitness (log ratio)” value is at most -4.2. For the variant A47C G86A C149U, the “polymerase ribozyme fitness (log ratio)” value was -1.64. Regarding G46U G50C, the “polymerase ribozyme fitness (log ratio)” value is at most -4.2. Consider G48A C57G A60G C63A C99G, for which the “polymerase ribozyme fitness (log ratio)” value was at most -4.2. The result for U45C A119C reads -0.959; that for A47U G70C G84U C105U A120U, at most -4.2.

Take A47G A52G C57U G80A U135G A138G: the “polymerase ribozyme fitness (log ratio)” value was at most -4.2. Regarding G46U C85U G92A U101A G117A, the “polymerase ribozyme fitness (log ratio)” value was at most -4.2. Turning to A49C C54A A98G C125G, the “polymerase ribozyme fitness (log ratio)” value was at most -4.2. Take A47C A49C C57G U61A A66C A73G U111G G140A: the “polymerase ribozyme fitness (log ratio)” value was at most -4.2. On to G46C C105G, for which the “polymerase ribozyme fitness (log ratio)” value was 1.29. The result for A47U U77C C85A C93G A107U reads at most -4.2; that for G48C G59C U102G G143U U144G, at most -4.2; that for G48C A49C C103A, at most -4.2. Regarding A47C C87A A91G A98U C108U A137U, the “polymerase ribozyme fitness (log ratio)” value is at most -4.2. Consider A47U A49C G68A U78C A91G C95A U148C, for which the “polymerase ribozyme fitness (log ratio)” value is at most -4.2. Regarding A49C A60C G83C C129G, the “polymerase ribozyme fitness (log ratio)” value is at most -4.2.

Turning to A47C G94A, the “polymerase ribozyme fitness (log ratio)” value is -2.54. The result for A49C C76A G83A G128A reads at most -4.2; that for A47G G71U A98G C99G U102G, at most -4.2. U45G A49G U53A C108A C118G C125G: the “polymerase ribozyme fitness (log ratio)” value is at most -4.2. In the case of A47G G68U G88U U90A A106G C114U U134A it was at most -4.2. In the case of A47C A66U C76A U77G A110C A115G, the “polymerase ribozyme fitness (log ratio)” value is at most -4.2. Take G46A G62A C76A C96U U102A C114U A115C C118U: the “polymerase ribozyme fitness (log ratio)” value is at most -4.2. With A47C C87A A120U C125A, the “polymerase ribozyme fitness (log ratio)” value is at most -4.2. For A47G A73G G83C C87U G152C, the “polymerase ribozyme fitness (log ratio)” value is at most -4.2.

A49C C51U G133A G143U: the “polymerase ribozyme fitness (log ratio)” value was at most -4.2.

Take G46C A49U C54A G92U U148A: the “polymerase ribozyme fitness (log ratio)” value is at most -4.2. On to A47C C85A C118U, for which the “polymerase ribozyme fitness (log ratio)” value was -0.946. With U45C G80C C85U C87G G92A U144G, the “polymerase ribozyme fitness (log ratio)” value is at most -4.2.

As for A47C C87A G88U, the “polymerase ribozyme fitness (log ratio)” value is at most -4.2. On to G48A C85G A98U C99U, for which the “polymerase ribozyme fitness (log ratio)” value is -3.36.

Regarding G46A C63G G67C C85U, the “polymerase ribozyme fitness (log ratio)” value was at most -4.2. For the variant G48A A52C U53C G92U G94A C125A U135A G143C, the “polymerase ribozyme fitness (log ratio)” value is at most -4.2. Consider U45A U82A A106G A122G U148G, for which the “polymerase ribozyme fitness (log ratio)” value is at most -4.2.
